Source: the RNAGym collection of RNA variant scans (doi:10.7554/elife.90254)
The source gives no read counts; variants with many changes may rest on few reads.

B1: OR4K15 (parent)
chain: GUUAACGGUCAUAGGCCAUGGAAACUAGGAGCACCAUUUCGCUGCCAGUGAAGAAAUGAACAAAGAAAAUCUGGGCCAGGCAGGCAUCAAAAGAAAUAGUCUUGCGCUCAACCAGAAAGUCUGUAAUCAUUUUAAGGGUA

Variants of: B1
Assay: self-cleavage, relative activity (ratio to wild type); higher = more cleavage; in vitro, sequencing; the parent is a self-cleaving ribozyme

Variant | self-cleavage
GUUAACGGUCAUAGGCCAUGGAGACUAGGAGCACCAUUUCGCUGCCAGUGAAGAAAUGAACAAAGAAAAUCUGGGCCAGGCAGGUAACAAAAGAAAUAGACUUGCGCUCAGCCAGAAAGUCUGUAAUCAUUUUAAGGGUA [A23G C85U U87A U100A A111G] | 0.02
GUUAACGGUCAUAGGCCAUGGAGACUAGGAGCACCAUUUCGCUGCCAGUGAAGAAAUGAACAAAGAAAAUCUGGGCCAGGCAGGCAUUAAAAGAAGUAGUCUUGCGCUCAACCAGAAAGUCUGUAAUCAUUUUAAGGGUA [A23G C88U A96G] | 2.29
GUUAACGGUCAUAGGCCAUGGAGACUAGGAGCACCAUUUCGCUGCCAGUGAAGAAAUGAACAAAGAAAAUCUGGGCCAGGCAGGCAUCAAAAGAAAUAGUCUUGCGCUCAACAGGAAAGUCUGUAAUCAUUUUAAGGGUA [A23G C113A A114G] | 0.02
GUUAACGGUCAUAGGCCAUGGAGACUAGGACCACCAUUUCGCUGCCAGCGAAGAAAUGAACAACGAAAAUCUGGGCCAGGCAGGCAUCAAAAGAAAUAGUCUUGCGCUCAACCAGAAAGUCUGUAAUCAUUCUAAGGGUA [A23G G31C U49C A64C U132C] | 1.36
GUUAACGGUCAUAGGCCAUGGAGACUAGGAGCACCAUUUCACUGCCAGUGAAGAAAUGAACAAAGAAAAUCUGGGCCAGGCAGGCAUCAAAGGAAAUAGUCUUGCGCUCAACCAGAAAGUCUGUAAUCAUUUUAAGGGUA [A23G G41A A92G] | 1.15
GUUAACGGUCAUAGGCCAUGGAGACUAGGAGCACCAUUUCUCUGCCAGUGAAGAAAUGAACAAAGAGAAUCUGGGCCAGGCAGGCAUCAAAAGAAAUAGUCUUGCGCUCAACCAGAAAGUCCGUAAUCAUUUUUAGGGUA [A23G G41U A67G U122C A134U] | 0.98
GUUAACGGUCAUAGGCCAUGGAGACUAGGAGCACCAUUUCGCUACCAGCGAAGAAGUGAACAAAGAAAAUCUGGGCCGGGCAGGCAUCAAAAGAAAUAGUCUUGCGCUCAACCAGAAAGUCUGUAAUCAUUUUAAGGGUA [A23G G44A U49C A56G A78G] | 0.2
GUUAACGGUCAUAGGCCAUGGAGACUAGGAGCACCAUUUCGCUACCAGUGAAGAAAUGAACAAAGAAAAUCUGGGCCAGGCAGGCAUCAAAAGAAAUAGUCCAGCGCUCCACCAGAAAGUCAGUAAUCAUUUUAAGGGUG [A23G G44A U102C U103A A110C U122A A140G] | 0.02
GUUAACGGUCAUAGGCCAUGGAGACUAGGAGCACCAUUUCGCUGCCAUAGAAGAAAUGAUCAGAGAAAAUCUGGGCCAGGCAGGCAUCAAAGGAAAUAGUCUUGCGCUCAACCAGAAAGUCUGUAAUCAUUUUAAGGGUA [A23G G48U U49A A60U A63G A92G] | 0.58
GUUAACGGUCAUAGGCCAUGGAGACUAGGAGCACCAUUUCGCUGCCAGUGAAGAAAUGAACAAAGAAAAUCUGGGCCAAGCAGGCAUCAAAAGAAAUAGUCUUGUGCUCAACCAGAAAGUCUGUAAUCAUUCUAAGGGUA [A23G G79A C105U U132C] | 0.05
GUUAACGGUCAUAGGCCAUGGAGACCAGGAGCACCAUUUCGCUGCCAGUGAAGGAAUGAACAAGGAAAAUCUGGGCCAGGCAGGCAUCAAAAGAAAUAGUCUUGCGCUCAACCAGAUGGUCUGUAAUCAUUUUAAGGGUA [A23G U26C A54G A64G A117U A118G] | 0.33
GUUAACGGUCAUAGGCCAUGGAGACCAGGAGCACCAUCUCGCUGCCAGUGAAGAAAUGAACAAAGAAAGUCUGGGCCAGGCAGGCAUCAAAAGAAAUAGUCUUGCGCUCAACCAGAAAGCCUGUAAUCAUUUUAAGGGUA [A23G U26C U38C A69G U120C] | 0.37
GUUAACGGUCAUAGGCCAUGGAGACCAGGAGCACCAUUUCGCUGCCAGUGAAGAAAUGAACAAAGAAAAUCUGGGCCAGGCAGGCAUCAAAAGAAAUAGUCUUGCGCUCAACCAGAAAGCCUGUAAUCAUUUUAAGGGUA [A23G U26C U120C] | 0.49
GUUAACGGUCAUAGGCCAUGGAGACUAGGAGCACCACUUCGCUGCCAGUGGAGAAAUGAACAAAGAAAAUCUGGGCCAGGCAGGCAUCAAAAGAAAUAGUCUUGCGCUCAACCAGAAAGUCUGUAAUCAUUUUAAGGGUA [A23G U37C A51G] | 0.75
GUUAACGGUCAUAGGCCAUGGAGACUAGGAGCACCACUUCGCUGCCAGUGAAGAAGUGAACAAAGAAAAUCUGGGCCAGGCAGGCAUCAAAAGAAAUAGUCUUGCGCUCAACCAGAAAGUCCGUAAUCAUUUUAAGGGUA [A23G U37C A56G U122C] | 0.22
GUUAACGGUCAUAGGCCAUGGAGACUAGGAGCACCACUUCGCUGCCAGUGAAGAAAUGAACAAAGAAAAUCUGGGCCAGGCAGGCAUCAAGAGAAAUAGUCUUGCGCUCAACCGGAAAGUCUGUAAUCAUUUUAAGGGUA [A23G U37C A91G A114G] | 0.11
GUUAACGGUCAUAGGCCAUGGAGACUAGGAGCACCACUUCGCUGCCAGUGAAGAAAUGAACAAAGAAAAUCUGGGCCAGGCAGGCAUCAAAAGAAAUAGUCUUGCGCUCAACCAGAGAGUCUGUAAUCAUUUUAAGGGUA [A23G U37C A117G] | 1.94
GUUAACGGUCAUAGGCCAUGGAGACUAGGAGCACCACUUCGCUGCCAGUGAAGAAAUGAACAAAGAAAAUAUGGGCCAGGCAGGCAUCAAAAGAAAUAGUCUUGCGCUCAACCAGUAAGUCUGUAAUCAUUUUAAGGGUA [A23G U37C C71A A116U] | 0.05
GUUAACGGUCAUAGGCCAUGGAGACUAGGAGCACCACUUCGCUGCCAGCGAAGAAAUGAACAAAGAAAAUCUGGGCCAGGCAGGCAUCAAAGGAGAUAGUCUUGCGCUCAACCAGAAAGUCUGUAAUCAUUUUAAGGGUA [A23G U37C U49C A92G A95G] | 1.53
GUUAACGGUCAUAGGCCAUGGAGACUAGGAGCACCAUAUCGCUGCCAGUGAAGAAAUGAACAAAGAAAAUCCGGGCCAGGCAGGCAUCAAAAGAAAUAGUCUUGCGCUCAACCAGAAAGUCUGUAAUCAUUUUAAGGGUA [A23G U38A U72C] | 0.24
GUUAACGGUCAUAGGCCAUGGAGACUAGGAGCACCAUCUCGCUGCCAGUGGAGAAACGAACAAAGAAAAUCUGGGCCAGGCAGGCAACAAAAGAAAUAGUCUUGCGCUCAACCAGAAAGUCUGUAAUCAUUUUAAGGGUA [A23G U38C A51G U57C U87A] | 1.17
